Reference: the supplement of paper PMC4967469

What was measured:
Test in all cases: Viability of human cancer cell lines after 72 h of drug (GDSC screen)
EHT 1864 = compound: O=c1cc(CN2CCOCC2)occ1OCCCCCSc1ccnc2cc(C(F)(F)F)ccc12 [EHT 1864]; details: top dose 10 µM; top dose inferred
Method: (§1)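 Human cancer cell lines in 384-well plates, medium with 10% serum, drug for 72 h over a 256-fold dose range (nine 2-fold or five 4-fold steps up to the top dose). Adherent lines were fixed and stained with the nucleic acid dye Syto60, suspension lines read with resazurin; signal relative to control wells, capped at 0 and 100%. One two-parameter sigmoid per drug and line, fitted in a mixed model over all curves with the slope shared within a line.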

Gefitinib = compound: COc1cc2ncnc(Nc3ccc(F)c(Cl)c3)c2cc1OCCCN1CCOCC1 [Gefitinib]; details: top dose 0.5 µM
Method: as §1

QL-XI-92 = compound: C=CC(=O)Nc1cc(NC(=O)c2ccc(C)c(NC(=O)c3ccno3)c2)cc(C(F)(F)F)c1 [QL-XI-92]; details: top dose 10.24 µM; top dose inferred
Method: as §1

S-Trityl-L-cysteine = compound: N[C@@H](CSC(c1ccccc1)(c1ccccc1)c1ccccc1)C(=O)O [S-Trityl-L-cysteine]; details: top dose 5.12 µM; top dose inferred
Method: as §1

Phenformin = compound: N=C(N)NC(=N)NCCc1ccccc1 [Phenformin]; details: top dose 4000 µM; top dose inferred
Method: as §1

XL-184 = compound: COc1cc2nccc(Oc3ccc(NC(=O)C4(C(=O)Nc5ccc(F)cc5)CC4)cc3)c2cc1OC [XL-184]; details: top dose 5.12 µM; top dose inferred
Method: as §1

AG-014699 = compound: CNCc1ccc(-c2[nH]c3cc(F)cc4c3c2CCNC4=O)cc1 [AG-014699]; details: top dose 5 µM; top dose inferred
Method: as §1

NU-7441 = compound: O=c1cc(N2CCOCC2)oc2c(-c3cccc4c3sc3ccccc34)cccc12 [NU-7441]; details: top dose 2 µM; top dose inferred
Method: as §1

WHI-P97 = compound: COc1cc2ncnc(Nc3cc(Br)c(O)c(Br)c3)c2cc1OC [WHI-P97]; details: top dose 10.24 µM; top dose inferred
Method: as §1

Vinorelbine = compound: CCC1=C[C@@H]2CN(C1)Cc1c([nH]c3ccccc13)[C@@](C(=O)OC)(c1cc3c(cc1OC)N(C)[C@H]1[C@@](O)(C(=O)OC)[C@H](OC(C)=O)[C@]4(CC)C=CCN5CC[C@]31[C@@H]54)C2 [Vinorelbine]; details: top dose 0.064 µM; top dose inferred
Method: as §1

Cell Line	AUC (EHT 1864)	IC50 (EHT 1864) [µM]	AUC (Gefitinib)	IC50 (Gefitinib) [µM]	AUC (QL-XI-92)	IC50 (QL-XI-92) [µM]	AUC (S-Trityl-L-cysteine)	IC50 (S-Trityl-L-cysteine) [µM]	AUC (Phenformin)	IC50 (Phenformin) [µM]	AUC (XL-184)	IC50 (XL-184) [µM]	AUC (AG-014699)	IC50 (AG-014699) [µM]	AUC (NU-7441)	IC50 (NU-7441) [µM]	AUC (WHI-P97)	IC50 (WHI-P97) [µM]	AUC (Vinorelbine)	IC50 (Vinorelbine) [µM]
697 (lymphoblastic leukaemia, suspension)	0.905	8.7	0.991	> 0.5	0.8	3.84	0.534	0.389	0.149	28.8	0.821	2.22	0.773	1.57	0.881	1.39	0.876	6.78	0.486	0.00369
A3-KAW (B-cell lymphoma, suspension)	0.943	> 10	0.99	> 0.5	0.883	7.13	0.64	0.716	0.416	155	0.913	4.75	0.991	> 5	0.993	> 2	0.907	8.94	0.779	0.0209
A4-Fuk (B-cell lymphoma, suspension)	0.976	> 10	0.984	> 0.5	0.971	> 10.2	0.549	0.437	0.835	2800	0.868	5	0.986	> 5	0.984	> 2	0.986	> 10.2	0.452	0.00294
A253 (head and neck, adherent)	0.973	> 10	0.976	> 0.5	0.962	> 10.2	0.858	4.01	0.857	3110	0.989	> 5.12	0.989	> 5	0.977	> 2	0.988	> 10.2	0.371	0.00178
ALL-PO (lymphoblastic leukaemia, suspension)	0.711	2.56	0.912	> 0.5	0.857	9.12	0.68	1.05	0.188	27.2	0.31	0.0908	0.875	> 5	0.859	1.81	0.797	5.14	0.441	0.00272
ALL-SIL (T-cell leukaemia, suspension)	0.969	> 10	0.988	> 0.5	0.478	0.564	0.714	1.16	0.416	152	0.532	0.387			0.987	> 2	0.917	> 10.2	0.348	0.00162
AM-38 (glioma, semi-adherent)	0.892	> 10	0.962	> 0.5	0.885	> 10.2	0.988	> 5.12	0.97	> 4000	0.872	5.07	0.966	> 5	0.958	> 2	0.944	> 10.2	0.811	0.0349
ARH-77 (myeloma, suspension)	0.943	> 10	0.968	> 0.5	0.88	10	0.791	2.2	0.777	1550	0.948	> 5.12	0.983	> 5	0.979	> 2	0.984	> 10.2	0.742	0.0191
ATN-1 (T-cell lymphoblastic leukaemia, suspension)	0.988	> 10	0.982	> 0.5	0.96	> 10.2	0.621	0.674	0.487	230	0.903	> 5.12	0.972	> 5	0.867	1.61	0.978	> 10.2	0.414	0.00237
BB49-HNC (head and neck, adherent)	0.969	> 10	0.971	> 0.5	0.975	> 10.2	0.967	> 5.12	0.913	> 4000	0.978	> 5.12	0.952	> 5	0.938	> 2	0.948	> 10.2	0.766	0.0335
BE-13 (lymphoblastic leukaemia, suspension)	0.923	> 10	0.889	> 0.5	0.871	8.58	0.726	1.33	0.543	325	0.727	1.34	0.974	> 5	0.921	> 2	0.9	> 10.2	0.586	0.00677
Becker (glioma, adherent)	0.95	> 10	0.977	> 0.5	0.962	> 10.2	0.598		0.763	1610	0.869	> 5.12	0.935	> 5	0.93	> 2	0.956	> 10.2	0.538	0.00515

IC50 is the fitted dose that halves viability relative to control wells, and lower means more sensitive; fits outside the tested doses are given as limits. AUC, from the same fit, is the share of area under the viability curve across the 256-fold dose range: 1 means no effect, lower means more sensitive. For part of these data: Any top dose called inferred was calculated from the reported fits.
